# Laboratory results reported in the supplement of paper PMC8728848.
# Some of the results follow.
# Legend:
# Experiment in all cases: glycan array binding signal (z-score within array); higher = stronger binding
# Settings in all cases: glycan notation: IUPAC condensed, linker removed
# [1] = molecular target: Fuc(a1-2)Gal(b1-4)GlcNAc(b1-3)Gal(b1-4)GlcNAc(b1-3)Gal(b1-4)GlcNAc
# Procedure, shortened: (§1)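 The binding signal is a Z-score computed within each array. Data were drawn from 3228 arrays in the Consortium for Functional Glycomics database, restricted to those with a known protein sequence. Scores were averaged over arrays of the same protein sequence at different concentrations or buffers, and over linkers, and negative values can be taken as non-binding.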
# [2] = molecular target: Fuc(a1-2)Gal(b1-4)GlcNAc(b1-3)GalNAc
# Procedure, shortened: as §1
# [3] = molecular target: Fuc(a1-2)Gal(b1-4)GlcNAc(b1-3)[Fuc(a1-2)Gal(b1-4)GlcNAc(b1-6)]GalNAc
# Procedure, shortened: as §1
# [4] = molecular target: Fuc(a1-2)Gal(b1-4)GlcNAc(b1-3)[Fuc(a1-3)[Gal(b1-4)]GlcNAc(b1-6)]Gal(b1-4)Glc
# Procedure, shortened: as §1
# [5] = molecular target: Fuc(a1-2)Gal(b1-4)GlcNAc(b1-6)GalNAc
# Procedure, shortened: as §1
# [6] = molecular target: Fuc(a1-2)Gal(b1-4)GlcNAc6S
# Procedure, shortened: as §1
# [7] = molecular target: Fuc(a1-2)Gal(b1-4)[Fuc(a1-3)]GlcNAc
# Procedure, shortened: as §1
# [8] = molecular target: Fuc(a1-2)Gal(b1-4)[Fuc(a1-3)]GlcNAc(b1-2)Man(a1-3)[Fuc(a1-2)Gal(b1-4)[Fuc(a1-3)]GlcNAc(b1-2)Man(a1-6)]Man(b1-4)GlcNAc(b1-4)[Fuc(a1-6)]GlcNAc
# Procedure, shortened: as §1
# [9] = molecular target: Fuc(a1-2)Gal(b1-4)[Fuc(a1-3)]GlcNAc(b1-2)[Fuc(a1-2)Gal(b1-4)[Fuc(a1-3)]GlcNAc(b1-4)]Man(a1-3)[Fuc(a1-2)Gal(b1-4)[Fuc(a1-3)]GlcNAc(b1-2)Man(a1-6)]Man(b1-4)GlcNAc(b1-4)GlcNAc
# Procedure, shortened: as §1
# [10] = molecular target: Fuc(a1-2)Gal(b1-4)[Fuc(a1-3)]GlcNAc(b1-3)Gal(b1-4)[Fuc(a1-3)]GlcNAc
# Procedure, shortened: as §1
# [11] = molecular target: Fuc(a1-2)Gal(b1-4)[Fuc(a1-3)]GlcNAc(b1-3)Gal(b1-4)[Fuc(a1-3)]GlcNAc(b1-3)Gal(b1-4)[Fuc(a1-3)]GlcNAc
# Procedure, shortened: as §1
# [12] = molecular target: Fuc(a1-2)Gal(b1-4)[Fuc(a1-3)]GlcNAc(b1-3)GalNAc
# Procedure, shortened: as §1
# [13] = molecular target: Fuc(a1-2)Gal(b1-4)[Fuc(a1-3)]GlcNAc(b1-3)[Neu5Ac(a2-6)Gal(b1-4)GlcNAc(b1-6)]Gal(b1-4)Glc
# Procedure, shortened: as §1
# [14] = molecular target: Fuc(a1-2)Gal3S(b1-4)GlcNAc
# Procedure, shortened: as §1
# [15] = molecular target: Fuc(a1-2)Gal6S(b1-3)GlcNAc
# Procedure, shortened: as §1
# [16] = molecular target: Fuc(a1-2)Gal6S(b1-3)GlcNAc6S
# Procedure, shortened: as §1
# [17] = molecular target: Fuc(a1-2)Gal6S(b1-4)Glc
# Procedure, shortened: as §1
# [18] = molecular target: Fuc(a1-2)Gal6S(b1-4)Glc6S
# Procedure, shortened: as §1
# [19] = molecular target: Fuc(a1-2)[Gal(a1-3)]Gal
# Procedure, shortened: as §1
# [20] = molecular target: Fuc(a1-2)[Gal(a1-3)]Gal(b1-3)GalNAc
# Procedure, shortened: as §1
# [21] = molecular target: Fuc(a1-2)[Gal(a1-3)]Gal(b1-3)GalNAc(b1-3)Gal(a1-4)Gal(b1-4)Glc
# Procedure, shortened: as §1
# [22] = molecular target: Fuc(a1-2)[Gal(a1-3)]Gal(b1-3)GlcNAc
# Procedure, shortened: as §1
# [23] = molecular target: Fuc(a1-2)[Gal(a1-3)]Gal(b1-3)GlcNAc(b1-2)Man(a1-3)[Fuc(a1-2)[Gal(a1-3)]Gal(b1-3)GlcNAc(b1-2)Man(a1-6)]Man(b1-4)GlcNAc(b1-4)GlcNAc
# Procedure, shortened: as §1
# [24] = molecular target: Fuc(a1-2)[Gal(a1-3)]Gal(b1-3)GlcNAc(b1-2)Man(a1-3)[Fuc(a1-2)[Gal(a1-3)]Gal(b1-3)GlcNAc(b1-2)Man(a1-6)]Man(b1-4)GlcNAc(b1-4)[Fuc(a1-6)]GlcNAc
# Procedure, shortened: as §1
# [25] = molecular target: Fuc(a1-2)[Gal(a1-3)]Gal(b1-3)GlcNAc(b1-3)GalNAc
# Procedure, shortened: as §1
# [26] = molecular target: Fuc(a1-2)[Gal(a1-3)]Gal(b1-3)GlcNAc(b1-6)GalNAc
# Procedure, shortened: as §1
# [27] = molecular target: Fuc(a1-2)[Gal(a1-3)]Gal(b1-4)Glc
# Procedure, shortened: as §1
# [28] = molecular target: Fuc(a1-2)[Gal(a1-3)]Gal(b1-4)GlcNAc
# Procedure, shortened: as §1
# [29] = molecular target: Fuc(a1-2)[Gal(a1-3)]Gal(b1-4)GlcNAc(b1-2)Man
# Procedure, shortened: as §1
# [30] = molecular target: Fuc(a1-2)[Gal(a1-3)]Gal(b1-4)GlcNAc(b1-2)Man(a1-3)[Fuc(a1-2)[Gal(a1-3)]Gal(b1-4)GlcNAc(b1-2)Man(a1-6)]Man(b1-4)GlcNAc(b1-4)GlcNAc
# Procedure, shortened: as §1
# [31] = molecular target: Fuc(a1-2)[Gal(a1-3)]Gal(b1-4)GlcNAc(b1-2)Man(a1-3)[Fuc(a1-2)[Gal(a1-3)]Gal(b1-4)GlcNAc(b1-2)Man(a1-6)]Man(b1-4)GlcNAc(b1-4)[Fuc(a1-6)]GlcNAc
# Procedure, shortened: as §1
# [32] = molecular target: Fuc(a1-2)[Gal(a1-3)]Gal(b1-4)GlcNAc(b1-3)GalNAc
# Procedure, shortened: as §1
# [33] = molecular target: Fuc(a1-2)[Gal(a1-3)]Gal(b1-4)GlcNAc(b1-3)[Fuc(a1-2)[Gal(a1-3)]Gal(b1-4)GlcNAc(b1-6)]GalNAc
# Procedure, shortened: as §1
# [34] = molecular target: Fuc(a1-2)[Gal(a1-3)]Gal(b1-4)GlcNAc(b1-6)GalNAc
# Procedure, shortened: as §1
# [35] = molecular target: Fuc(a1-2)[Gal(a1-3)]Gal(b1-4)[Fuc(a1-3)]Glc
# Procedure, shortened: as §1
# [36] = molecular target: Fuc(a1-2)[Gal(a1-3)]Gal(b1-4)[Fuc(a1-3)]GlcNAc
# Procedure, shortened: as §1
# [37] = molecular target: Fuc(a1-2)[Gal(a1-3)]Gal(b1-4)[Fuc(a1-3)]GlcNAc(b1-3)GalNAc
# Procedure, shortened: as §1
binder,measurement,setting,value
FimD (Bordetella pertussis) (protein) MPARVISFCGAALAVWAGLAVQPAMAVDPPVDCGRALGLHFWSSASLISDQTPDGTLIGKPVVGRSLLSKSCKVPDDIKEDLSDNHDGEPVDIVLELGSNYKIRPQSYGHPGIVVDLPFGSTEETGIAIYIDFGSSPMQKVGERQWLYPQKGEVLFDVLTINGDNAEVRYQAIKVGPLKRPRKLVLSQFPNLFTYKWVFMRGTSQERVLAQGTIDTDVATSTIDLKTCRYTSQTVSLPIIQRSALTGVGTTLGMTDFQMPFWCYGWPKVSVYMSATKTQTGVDGVALPATGQAAGMASGVGVQLINGKTQQPVKLGLQGKIALPEAQQTESATFSLPMKAQYYQTSTSTSAGKLSVTYAVTLNYD,glycan array binding signal (z-score),[1],-0.426
same,glycan array binding signal (z-score),[2],-0.228
same,glycan array binding signal (z-score),[3],0.004
same,glycan array binding signal (z-score),[4],0.226
same,glycan array binding signal (z-score),[5],-0.227
same,glycan array binding signal (z-score),[6],-0.052
same,glycan array binding signal (z-score),[7],-0.158
same,glycan array binding signal (z-score),[8],0.57
same,glycan array binding signal (z-score),[9],0.133
same,glycan array binding signal (z-score),[10],0.137
same,glycan array binding signal (z-score),[11],-0.409
same,glycan array binding signal (z-score),[12],0.635
same,glycan array binding signal (z-score),[13],-0.355
same,glycan array binding signal (z-score),[14],-0.457
same,glycan array binding signal (z-score),[15],-0.232
same,glycan array binding signal (z-score),[16],0.716
same,glycan array binding signal (z-score),[17],-0.056
same,glycan array binding signal (z-score),[18],0.129
same,glycan array binding signal (z-score),[19],-0.036
same,glycan array binding signal (z-score),[20],0.05
same,glycan array binding signal (z-score),[21],-0.323
same,glycan array binding signal (z-score),[22],-0.256
same,glycan array binding signal (z-score),[23],-0.45
same,glycan array binding signal (z-score),[24],-0.218
same,glycan array binding signal (z-score),[25],-0.424
same,glycan array binding signal (z-score),[26],-0.383
same,glycan array binding signal (z-score),[27],-0.278
same,glycan array binding signal (z-score),[28],-0.119
same,glycan array binding signal (z-score),[29],0.021
same,glycan array binding signal (z-score),[30],0.604
same,glycan array binding signal (z-score),[31],-0.398
same,glycan array binding signal (z-score),[32],-0.296
same,glycan array binding signal (z-score),[33],0.518
same,glycan array binding signal (z-score),[34],-0.414
same,glycan array binding signal (z-score),[35],-0.318
same,glycan array binding signal (z-score),[36],-0.1
same,glycan array binding signal (z-score),[37],0.212
